Among all 52,000 compounds or so, about 1,700 (3.3%) were called active. No stated cut-off is given here; in the data, active means survival mostly below about 52% (no sharp cut-off); inactive means mostly above about 56%. Some of the results follow.

For this test, the system named is Wild type. The test can be described thus: S. aureus survival, RN4220 and DeltatarO strains – OD600, teichoic acid synthesis inhibitors, primary screen (AID 463173). The conditions noted are these: S. aureus RN4220 wild type/DeltatarO growth, OD600, 18 h, hits give low values, screened at 18.75 µg/mL (by protocol).
As for `Cc1cc(C)cc(Oc2c(C(F)(F)F)oc3cc(OCC(=O)NC4CCCCC4)ccc3c2=O)c1`, the survival is inactive: 103%.
In the case of `O=C(NN1C(=O)c2ccccc2C1=O)C1CC2CCC1C2` (stereo not drawn) it was inactive: 106%.
As to `CCOC(=O)c1cc(-c2ccccc2)n(-c2cccc(C(=O)Nc3cc(OC)cc(OC)c3)c2)c1C`, the survival is inactive: 88%.
Take `CCC(C)NC(=O)CSc1nc2c(sc3ccccc32)c(=O)n1Cc1ccccc1Cl` (stereo not drawn): the survival was inactive: 76%.
For `Cc1ccc(C)c(CSc2nc3ccncc3n2CC(=O)Nc2ccc(N(C)C)cc2)c1`, the survival was inactive: 74%.
For `Cc1cccc2nc(-c3cccc(NS(=O)(=O)c4ccccc4)c3)cn12`, the survival is inactive: 56%.
In the case of `Cc1ccc(C)c(Cn2c3ccccc3c3cnn(CC(=O)NCc4ccccc4)c(=O)c32)c1`, the survival was inactive: 89%.
As to `Cc1ccc(NC(=O)CSc2nc(-c3ccco3)nc3cc(=O)[nH]n23)cc1C`, the survival was inactive: 131%.
Turning to `Cc1cc(C)c(NC(=O)Nc2ccc3snnc3c2)c(C)c1`, the survival was inactive: 99%.
In the case of `Clc1ccccc1CNc1ncnc2c1c(-c1ccccc1)cn2-c1ccccc1` it was inactive: 69%.
For `Fc1ccccc1Cn1c(-c2ccccc2)nc2ccccc21`, the survival was active: 1%.
Turning to `COCCCNC(=O)CSc1nc2c(sc3ccccc32)c(=O)n1CCCC(=O)NCCOC`, the survival was inactive: 86%.
Consider `CC(=O)c1ccc(NC(=O)COCc2cc(-c3ccco3)on2)cc1`, for which the survival was inactive: 129%.
With `COc1cccc(N2CC(NC(=O)c3cccc(OC)c3OC)CC2=O)c1` (stereo not drawn), the survival is inactive: 82%.
As to `Cc1ccccc1OCc1nnc(SCc2cc(=O)c3cccc(F)c3[nH]2)n1C`, the survival was inactive: 83%.
On to `COc1ccc2c(c1)c1c(c(=O)n(-c3cccc(Cl)c3)c(=O)n1CC(=O)N1CCCC1)n2C`, for which the survival was inactive: 73%.
As to `COc1cc2c(cc1OC)CN(C(=O)CCC(=O)O)CC2`, the survival was inactive: 87%.
Next, `Cc1ccc(-c2cc(C(=O)Oc3ccccc3)c3cc(C)ccc3n2)cc1`: inactive: 65%; `CC(c1ccccc1)n1cc(C(=O)NCC2COc3ccccc3O2)nn1` (stereo not drawn): inactive: 117%.
Turning to `CCCn1c(SCC(=O)N(C(C)C)C(C)C)nnc1-c1cccnc1`, the survival was inactive: 110%.
In the case of `CCC1CCCCN1CCCNC(=O)CN1C(=O)CSc2ccc(S(=O)(=O)N3CCOCC3)cc21` (stereo not drawn), the survival is inactive: 67%.
As for `Cc1cc(NC(=O)C2CCN(S(=O)(=O)c3ccc4[nH]c(=O)oc4c3)CC2)ccc1Br`, the survival was inactive: 111%.
Consider `COc1ccc2nc(NC(=O)c3nc(S(=O)(=O)Cc4cccc(C)c4)ncc3Cl)sc2c1`, for which the survival was inactive: 86%.
In the case of `CCOC(=O)Cn1nc(C)c(NC(=O)COc2ccc(Cl)cc2C)c1C` it was inactive: 69%.
In the case of `CCOc1ccccc1NC(=O)Cn1ccn(Cc2ccc(C)cc2)c(=O)c1=O`, the survival was inactive: 85%.
As for `Cc1ccc(CN(C(=O)COc2c(C)cccc2C)C2CCS(=O)(=O)C2)o1` (stereo not drawn), the survival was inactive: 115%.
Regarding `COC(=O)c1nc2n(n1)C(c1cc(OC)ccc1OC)C(C(=O)Nc1ccc(C)cc1C)=C(C)N2` (stereo not drawn), the survival is inactive: 83%.
With `Cc1ccc(NC(=O)C(Cc2c[nH]c3ccccc23)NC(=O)OCC(C)C)cc1` (stereo not drawn), the survival is inactive: 54%.
For `COc1ccc(/C=C\C(=O)NC2CC(=O)N(c3ccccc3)C2)cc1OC` (stereo not drawn), the survival was inactive: 134%.
In the case of `COc1cc(NC(=O)c2nc(-c3ccncc3)no2)cc(OC)c1OC`, the survival is inactive: 112%.
For `Cc1ccc(Cl)cc1N1CCN(CCNC(=O)Nc2ccccc2Cl)CC1`, the survival is inactive: 98%.
Next, `CC(C)(C)C(=O)NCCc1csc2nc(-c3ccc(F)cc3)nn12`: inactive: 73%; `CCOC(=O)Cc1cc(=O)[nH]c(/N=C(\N)Nc2ccc3ccccc3c2)n1`: inactive: 90%.
As to `COc1ccc2oc(-c3ccc(C)c(NC(=O)COc4cc(C)cc(C)c4)c3)nc2c1`, the survival was inactive: 72%.
On to `CCc1ccc(-n2c(=O)c3c4c(sc3n(CC(=O)c3ccc(Cl)cc3)c2=O)CCC4)cc1`, for which the survival is inactive: 139%.
For the compound `CSc1cccc(NC(=O)C2CCN(C(=O)c3cnn(-c4ccccc4)c3-n3cccc3)CC2)c1`, the survival was inactive: 94%.
`O=C(CCS(=O)(=O)c1cccc2nsnc12)Nc1ccc(F)cc1`: the survival was inactive: 64%.
On to `Cc1ccc(Cl)cc1NC(=O)C(=O)NCC(c1cccnc1)N1CCc2ccccc21` (stereo not drawn), for which the survival is inactive: 62%.
Take `Cc1ccc2oc3c(c(=O)c2c1)C1(C(=O)N(C)c2ccccc21)N(CCCO)C3=O` (stereo not drawn): the survival is inactive: 84%.
For `COc1ccccc1NC(=O)c1sc2nc3c(cc2c1N)CCCCCC3`, the survival is inactive: 81%.
As for `O=C(c1ccccc1)N1c2ncnn2C2(CCCCC2)[C@@H]2CCCC[C@@H]21`, the survival is inactive: 79%.
As for `Cc1ccc(-n2nnc(C(=O)Nc3cc(F)ccc3F)c2C)cc1F`, the survival is inactive: 111%.
Turning to `Cc1nn(-c2ccc(N3CCOCC3)nn2)c(C)c1CCC(=O)NCc1ccc(F)cc1`, the survival was inactive: 153%.
Consider `COC(=O)CSc1nc(N)c(C#N)c(-c2ccccc2)c1C#N`, for which the survival is inactive: 112%.
Turning to `Cc1ccc2c(c1)C(c1ccc(F)cc1)N(C(=O)c1ccc(OC(C)C)cc1)CC(=O)N2` (stereo not drawn), the survival was inactive: 105%.
With `Cc1ccccc1C(=O)Nc1cc(-c2ccc(Cl)cc2)nn1-c1ccccc1`, the survival was inactive: 70%.
Turning to `COc1cc2[nH]c(=O)n(CCCC(=O)N3CCN(c4cccc(C(F)(F)F)c4)CC3)c(=O)c2cc1OC`, the survival is inactive: 70%.
For `CCS(=O)(=O)N1CCN(C2CCCCCCC2)CC1`, the survival is inactive: 113%.
On to `CCOc1ccc(NC(=O)CSc2nc3c(oc4ccccc43)c(=O)n2CCOC)cc1`, for which the survival was inactive: 87%.
Take `Cc1ccn2c(=O)cc(COc3ccc(NC(=O)c4ccccc4F)cc3)nc2c1`: the survival was inactive: 73%.
For `Cn1ncc2nc(SCC(=O)Nc3ccc(Br)cc3F)n(Cc3ccccc3)c(=O)c21`, the survival was inactive: 48%.
Turning to `CC(C(=O)NCC1CCCO1)N(C(=O)c1snc(C(N)=O)c1N)c1cccc(F)c1` (stereo not drawn), the survival is inactive: 101%.
In the case of `Cc1ccc(NC(=O)C2CCN(c3cc(C)nc4c(-c5ccc(Cl)cc5)c(C)nn34)CC2)c(C)c1` it was inactive: 97%; in that of `COc1ccccc1N1CCN(C(=O)CN2C(=O)COc3ccc(S(=O)(=O)N4CCC(C)CC4)cc32)CC1`, inactive: 98%; in that of `COc1ccc(C(=O)CSc2c(C(C)C)cnc3c2c(=O)n(C)c(=O)n3C)cc1`, inactive: 74%.
Consider `CCOC(=O)c1cnc2c(CC)cccc2c1NCCO`, for which the survival was inactive: 116%.
For the compound `Cc1cccc(N2CCN(c3cccc(C)c3)C2c2cccnc2)c1`, the survival is inactive: 111%.
In the case of `Cc1ccc2nc(N(Cc3cccnc3)C(=O)CCS(=O)(=O)c3ccccc3)sc2c1` it was inactive: 73%; in that of `CC(=O)c1ccc(NC(=O)CSc2nc(-c3cccc(F)c3)nc3c2c(=O)n(C)c(=O)n3C)cc1`, inactive: 83%; in that of `CCOc1ccc(CCNC(=O)CN2N=C(c3ccccc3)CCC2=O)cc1OCC`, inactive: 85%.
As for `CCCCN(CC)CCCNC(=O)c1cc2c(=O)[nH]c3ccccc3c2s1`, the survival was inactive: 135%.
Consider `CN1C(C(=O)Nc2ccc(F)cc2F)=CC(c2ccc3c(c2)OCO3)=NS1(=O)=O`, for which the survival is inactive: 74%.
In the case of `Cc1cc(C)cc(NC(=O)CN2C(=O)c3ccccc3Sc3ncccc32)c1`, the survival is inactive: 92%.
With `COc1ccc(CNC(=O)c2ccc3c(c2)nc2n3CCOC2)c(OC)c1`, the survival was inactive: 81%.
With `Cc1ccc(CN(Cc2ccco2)C(=O)COc2ccc(C(C)C)cc2)cc1`, the survival is inactive: 111%.
As for `O=C1c2ccc(-c3ccc4c(c3)C(=O)N(CCO)C4=O)cc2C(=O)N1CCO`, the survival is inactive: 113%.
Turning to `Cc1ccc(-c2cc(C(F)(F)F)c(C#N)c(SCC(=O)Nc3ccccc3)n2)cc1`, the survival was inactive: 72%.
Take `COc1ccc(OC)c(CCNC(=O)c2csc3c2CCCCC3)c1`: the survival was inactive: 34%.
For the compound `CCOC(=O)C(C)NC(=O)c1c(C)oc2ncn(CC(C)C)c(=O)c12` (stereo not drawn), the survival was inactive: 72%.
For the compound `CCOC(=O)C1CCN(C(=O)c2ccc3c(=O)n4nc(Nc5cc(C)ccc5C)sc4nc3c2)CC1`, the survival was inactive: 72%.
In the case of `CCOc1cccc(C2c3c(-c4cc(C)ccc4O)n[nH]c3C(=O)N2Cc2ccco2)c1` (stereo not drawn), the survival is inactive: 27%.
For `Cc1ccc(CNC(=O)c2cc3c(=O)n(Cc4cccnc4)ccc3nc2C)cc1`, the survival was inactive: 74%.
As for `CCC(=O)C1=C(c2cccc(OC)c2)N(C(=O)CC)n2c(nnc2C2CCCCC2)S1`, the survival is inactive: 47%.
Take `CCn1cc(C(=O)N2CCN(c3ccc(C(C)=O)cc3)CC2)c2cc(OC)c(OC)cc2c1=O`: the survival was inactive: 140%.
Regarding `Cc1ccc(NC(=O)Cn2c(=O)oc3cc(S(=O)(=O)NCc4ccccc4)ccc32)cc1`, the survival was inactive: 81%.
For the compound `Cc1cccc(C)c1OCc1nc2c3c(-c4ccccc4)c(-c4ccccc4)oc3ncn2n1`, the survival is inactive: 75%.
As for `COc1cccc(NC(=O)C2CCN(c3nn4cc(-c5ccc(F)cc5)nc4s3)CC2)c1`, the survival was inactive: 89%.
As for `Cc1cccc2c1-c1sc(C(=O)N(C)c3cccc(C(F)(F)F)c3)cc1CO2`, the survival was inactive: 24%.
Next, `CC(=O)C1=C(c2ccc(C)c(C)c2)N(C(C)=O)n2c(nnc2-c2ccc(Cl)cc2)S1`: inactive: 136%.
In the case of `CC(=O)Nc1cc(-n2cnnn2)ccc1C`, the survival is inactive: 98%.
Next, `CCNC(=O)c1nn(-c2ccccc2C)nc1CO`: inactive: 115%; `Cc1cccc(CNC(=O)CCCn2c(=O)c3cccn3c3ccc(F)cc32)c1`: inactive: 96%.
With `Cc1csc2nc(COc3ccccc3NC(=O)c3ccc(C(C)(C)C)cc3)cc(=O)n12`, the survival was inactive: 80%.
For `Cc1ccc(CN2CCN(CC(=O)Nc3ccc(C)c(C)c3)S2(=O)=O)cc1`, the survival is inactive: 85%.
Consider `N#Cc1cccc(NC(=O)C2CCN(S(=O)(=O)c3ccc4[nH]c(=O)ccc4c3)CC2)c1`, for which the survival is inactive: 78%.
On to `Cc1ccccc1-n1nc(CO)c(C(=O)NCc2cccs2)n1`, for which the survival was inactive: 90%.
Turning to `O=C(Cn1c(=O)n(-c2ccccc2Cl)c(=O)c2sc3ccccc3c21)NC1CCCCC1`, the survival was inactive: 132%.
Turning to `Cc1c(NC(=O)c2nc3ccccc3nc2N2CCCCC2)cccc1[N+](=O)[O-]`, the survival was inactive: 85%.

The values above are taken from PubChem BioAssay AID463173 (ICCB-Longwood Screening Facility, Harvard Medical School, 2010).
